# Article PMC4336329 (PLoS ONE, 2015)
# Screen size: about 310,000 compounds; about 2,200 (0.71%) showed an effect of 50% or more. Effects have a minus sign here. The list shows a part of the results.
# Target: human ether-à-go-go-related gene (hERG) potassium channel (human, UniProt Q12809)
# Experiment: primary screen, population patch clamp on CHO cells stably expressing hERG
# human ether-à-go-go-related gene (hERG) potassium channel, sequence (Q12809 whole entry, looked up): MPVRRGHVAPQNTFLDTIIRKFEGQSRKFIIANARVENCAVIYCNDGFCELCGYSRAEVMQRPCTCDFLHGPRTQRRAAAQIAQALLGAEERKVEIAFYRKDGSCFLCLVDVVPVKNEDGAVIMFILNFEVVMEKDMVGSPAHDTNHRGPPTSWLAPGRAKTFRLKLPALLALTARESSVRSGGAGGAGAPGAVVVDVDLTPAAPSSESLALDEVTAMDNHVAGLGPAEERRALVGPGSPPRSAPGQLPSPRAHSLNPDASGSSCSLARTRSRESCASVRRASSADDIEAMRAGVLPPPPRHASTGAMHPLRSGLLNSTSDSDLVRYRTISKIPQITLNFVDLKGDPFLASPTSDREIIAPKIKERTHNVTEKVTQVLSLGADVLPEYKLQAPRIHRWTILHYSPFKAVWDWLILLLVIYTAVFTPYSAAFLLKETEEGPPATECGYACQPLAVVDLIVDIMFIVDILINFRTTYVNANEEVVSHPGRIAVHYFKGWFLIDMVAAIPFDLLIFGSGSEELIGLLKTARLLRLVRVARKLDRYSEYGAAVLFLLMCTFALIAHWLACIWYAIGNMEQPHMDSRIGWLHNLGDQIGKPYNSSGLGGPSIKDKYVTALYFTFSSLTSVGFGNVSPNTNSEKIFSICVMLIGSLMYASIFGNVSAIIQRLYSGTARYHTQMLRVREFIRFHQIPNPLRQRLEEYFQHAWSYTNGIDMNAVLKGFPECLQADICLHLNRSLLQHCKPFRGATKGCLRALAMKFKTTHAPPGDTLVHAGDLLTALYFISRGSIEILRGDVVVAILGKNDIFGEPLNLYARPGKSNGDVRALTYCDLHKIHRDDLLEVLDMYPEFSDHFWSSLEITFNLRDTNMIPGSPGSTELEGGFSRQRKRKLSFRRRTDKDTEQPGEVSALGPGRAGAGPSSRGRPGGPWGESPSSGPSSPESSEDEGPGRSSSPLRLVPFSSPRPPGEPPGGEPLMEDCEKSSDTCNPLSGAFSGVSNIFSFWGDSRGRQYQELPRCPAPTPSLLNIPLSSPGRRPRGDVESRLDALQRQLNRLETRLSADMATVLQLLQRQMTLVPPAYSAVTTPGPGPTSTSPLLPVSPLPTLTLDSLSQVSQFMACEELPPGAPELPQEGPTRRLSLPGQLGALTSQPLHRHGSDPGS
row,Compound,"hERG current change (%, negative = inhibition) at 1uM [%]"
1,CN(Cc1cnccn1)Cc1nc(Cc2cccc(F)c2)no1,15.9
2,CCOc1ncccc1C(=O)OCC(=O)N1CCN(S(=O)(=O)c2ccc(Cl)cc2)CC1,12.1
3,O=S(=O)(Cc1ccccc1Cl)NCCc1ccc(F)cc1,7.36
4,Cc1ccc(NC(=O)CN2C(=O)C3CC=C(Cl)CC3C2=O)cc1 (stereo not shown),8.18
5,CCOC(=O)c1c(NC(=S)Nc2cc([N+](=O)[O-])ccc2OC)sc2c1CCCCC2,2.89
6,CCOc1ccc(NC(=O)N2CCC(NC(=O)c3ccco3)CC2)cc1,-0.77
7,C/C=C\C=C/C(=O)Nc1cccc(C2=NOC3(C2)C[C@H](C(N)=O)N(C(=O)c2ccc(OC)cc2)C3)c1 (stereo partly shown),15.6
8,CN(C)c1cccc(C(=O)OCCCC(=O)c2ccc(F)cc2)c1,-0.568
9,COc1ccc(C(=O)NCN2CCN(c3ccccc3)CC2)cc1OC,7.76
10,Cl.Fc1ccc(COc2ccc(Br)cc2CNCc2ccncc2)cc1,-7.69
11,O=C(NC1CC1)C1Nc2ccc(OC(F)(F)F)cc2C2C=CCC12 (stereo not shown),3.62
12,O=C(NCc1cccnc1)C1CCCN(S(=O)(=O)c2cccc3nsnc23)C1 (stereo not shown),-5.19
13,CC(C)S(=O)(=O)c1csc(C(=O)Nc2ccc(F)cc2)c1N,12
14,CCOCC(=O)Nc1cc(Cl)c(OC)cc1OC,12.6
15,Cc1ccc(S(=O)(=O)N2CCN(C(=O)COC(=O)c3ccc([N+](=O)[O-])o3)CC2)c(C)c1,-7.35
16,Cc1c(NC(=O)CCC2CCCCC2)c(=O)n(-c2ccccc2)n1C,2.86
17,Cc1ccc(C2CCN(C(=S)NC3CCCCC3)C2)cc1 (stereo not shown),8.58
18,O=C(c1ccccc1F)N1CCCC(c2ccccc2)C1 (stereo not shown),0.0509
19,CCCCN=C1NN=C(c2cccc([N+](=O)[O-])c2)CS1.Cl,-0.44
20,CCOc1cc(/C=N/NC(=O)CN2CCCCC2)ccc1OCc1ccccc1,-12.6
21,Cn1c(SCC(=O)NCc2ccccc2)nnc1-c1ccc(NC(=O)CCc2ccccc2)cc1,4.81
22,CCNc1nc(NC(C)C)nc(NS(=O)(=O)c2ccc(N)cc2)n1,0.986
23,CN(CC1COc2ccccc2O1)C(=S)Nc1ccccc1 (stereo not shown),-0.26

row,Compound,"hERG current change (%, negative = inhibition) at 1uM [%]"
1,Cc1cccc(C(=O)Oc2ccccc2C2C[C@]3(C)CC(=O)NC3N2C(=O)c2cccc(C)c2)c1 (stereo partly shown),6.1
2,CCCn1nnc(NC(=O)c2ccc(OCC)c(Cl)c2)n1,7.81
3,CCC1CCC/C1=N\NC(=O)c1ccccc1Cl (stereo not shown),4.55
4,CCCCC(CC)C1OCC(CN2CCCCC2)O1 (stereo not shown),1.44
5,CC(=O)[C@@]1(O)CC[C@H]2[C@@H]3CC=C4C[C@@H](O)CC[C@]4(C)[C@H]3CC[C@@]21C,7.77
6,COCCCNC(=O)CSc1nc2c(sc3ccccc32)c(=O)n1CCCC(=O)NCC1CCCO1 (stereo not shown),-2.49
7,S=c1[nH]nc(Nc2cccc3ccccc23)s1,14.8
8,Cc1ccc(-c2cc(C(=O)N3CCC4(CC3)OCCO4)no2)cc1,4.37
9,Cc1cc(=O)n2[nH]c(-c3ccsc3-n3c(C)ccc3C)cc2n1,5.39
10,CN1C(=O)c2ccc(Oc3ccccc3)cc2C1=O,6.8
11,COc1ccc(Nc2cc(C)nc3ncnn23)cc1Cl,2.06
12,NC(=O)c1cc([N+](=O)[O-])ccc1Nc1ccccc1,9.96
13,O=C(COC(=O)CC1CC2CCC1C2)NC(=O)NC1CCCC1 (stereo not shown),8.39
14,O=C(NNC(=O)c1ccc(Oc2cc(Cl)cc(Cl)c2)o1)c1ccccc1,11.9
15,NC(=O)C1CCN(C(=O)CCC(=O)c2ccc(F)cc2)CC1,12.7
16,O=C(CN1CCOCC1)N1CCCc2ccccc21.O=C(O)C(=O)O,19
17,CCOc1ccc(N=Nc2c(=O)[nH]n3c(C)cc(C)nc23)cc1,2.58
18,COc1cccc(OC)c1C(=O)N1CCNCC1.O=C(O)C(=O)O,16.7
19,COC(=O)C1=C(C)N(C)C(C)=C(C(=O)OC)C1c1ccccn1,7.24
20,COc1cc(/C=C/C(=O)OCC(=O)N(C)CC(=O)Nc2ccc(F)cc2)ccc1OC(F)F,-24.2
21,Cc1cc(Cl)ccc1OCC(=O)N1CCCCC1,11.1
22,O=C(COC(=O)C1CC1)NC(=O)NCc1ccccc1,6.49
23,CC(C)OC(=O)CSc1nnc(CNc2ccc(Cl)cc2)n1Cc1ccccc1,6.8
